# From PubChem BioAssay AID1508642 (National Center for Advancing Translational Sciences (NCATS), 2021)
# Hit rate of the full screen: of about 43,000 compounds, about 200 (0.47%) were called active. Not shown: some 12% with an inconclusive outcome. Calls come from the whole dose curve; as a rule, active = well fitted cell-killing curve with a large enough effect; inconclusive = small, poorly fitted or top-dose-only effect, or effect the other way; inactive = flat fitted curve, though single readings scatter. Some of the results follow.
# Assay: Cell viability qHTS assay in S16 Pmp22-F2sN cells; note: nearly all actives have a fitted effect of over 65% in size
# Conditions: S16 Pmp22-F2sN Schwann cells (luciferase reporters placed in the Pmp22 gene) viability, CellTiter-Glo, 24 h; series mostly up to 57.5 µM; activity change, negative = cytotoxicity: at the top concentration
# Summary of the method: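 Seed 500-1,000 S16 Pmp22-F2sN cells per well in phenol-red-free DMEM with 10% heat-inactivated FBS; pin-add 23 nL compound; incubate 24 h at 37C; add CellTiter-Glo, wait 15 min protected from light; read luminescence.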
# % is set by controls: 0 for no effect and ±100 for the full control effect.
row,Compound,"activity change, negative = cytotoxicity"
1,Cc1cc(C)cc(-n2ccn(CC(=O)Nc3ccccc3C(F)(F)F)c(=O)c2=O)c1,inactive: -1.88%
2,CCN(c1ccccc1)c1nnc(NC(=O)Nc2cccc(Br)c2)s1,inactive: -0.966%
3,Cc1ccc(N2CC(C)Cn3c2nc2c3c(=O)n(CC(=O)O)c(=O)n2C)cc1 (stereo not drawn),inactive: 0.032%
4,COc1ccc(N2CCN(C(=O)c3ccc(CS(=O)(=O)c4ccc(Br)cc4)o3)CC2)cc1,inactive: 12.4%
5,Cc1nc(N2CCCC2)c2c(C(=O)N3CCN(c4cccc(Cl)c4)CC3)c(C)oc2n1,inactive: 0.489%
6,CCOc1ccc(C2c3c(oc4ccc(C)cc4c3=O)C(=O)N2Cc2ccc3c(c2)OCO3)cc1OC (stereo not drawn),inactive: -4.74%
7,Cc1ccc(CNC(=O)c2ccc(CSCc3ccc(C)cc3)o2)cc1,inactive: 2.99%
8,CCN(c1ccc(OC)cc1)S(=O)(=O)c1nnc(NC(=O)c2ccccc2Cl)s1,inactive: -0.0164%
9,Cc1c(C(=O)NCc2ccccc2)sc2nc3n(c(=O)c12)CCC3,inactive: 2.12%
10,CCCOC(=O)c1ccc(NC(=O)Cc2csc(C)n2)cc1,inactive: 0.949%
11,COCC(=O)N1c2nc(C(C)C)nn2C2(CCCCC2)[C@@H]2CCCC[C@@H]21,inactive: -2.26%
12,CSc1nc2sc3c(c2c(=O)n1-c1ccccc1C)CCCC3,inactive: 0.0627%
13,Cc1cccc(N2C(=O)CSC23C(=O)N(Cc2cccc(C(F)(F)F)c2)c2ccccc23)c1 (stereo not drawn),inactive: -9.03%
14,CCC(=O)N1CCc2cc(Br)cc(S(=O)(=O)NCc3ccc(Cl)cc3)c21,inactive: 19%
15,CCCN1CCN(CCCNC(=O)c2cnn(-c3ccc(F)cc3)c2-n2cccc2)CC1,inactive: 11.1%
16,CCOc1ccc(Nc2nc3ccccc3n3c(CC)nnc23)cc1,inactive: 4.54%
17,O=C(Cn1c(=O)n(-c2ccccc2)c(=O)c2sc3ccccc3c21)N1CCCC1,inactive: 1.75%
18,CCCc1nnc(NC(=O)Cc2coc3cc(C)cc(C)c23)s1,inactive: -3.72%
19,Cc1ccc(C(=O)N2CCc3cc(CNC(=O)COc4ccccc4)ccc32)cc1,inactive: 2.71%
20,COc1ccc(-c2nn3c(=O)cc(CN4CCN(C(=O)Nc5ccc(C)c(Cl)c5)CC4)nc3s2)cc1,inactive: 15.4%
21,COc1ccc(CCNC(=O)c2nnc(Cc3ccc(Cl)cc3)o2)cc1OC,inactive: 6.05%
22,O=C(NCC(c1ccco1)S(=O)(=O)c1ccc(Cl)cc1)c1ccccc1F (stereo not drawn),inactive: -23.5%
23,Cc1ccc2oc(=O)c3cnn(CC(=O)Nc4cccc(C(F)(F)F)c4)c3c2c1,inactive: -0.207%
24,O=[N+]([O-])c1cc(-c2nc(-c3cccnc3)no2)ccc1NCc1ccccc1,inactive: 1.39%

row,Compound,"activity change, negative = cytotoxicity"
1,CC(C)c1ccc(NC(=O)CN2C(=O)COc3ccc(S(=O)(=O)Nc4ccccc4)cc32)cc1,inactive: 3.3%
2,O=C(Nc1ccc(Br)cc1)C1CCN(S(=O)(=O)c2cccc3nsnc23)CC1,inactive: 12.3%
3,CC(C)OCCCNC(=O)CCCn1c(SCC(=O)c2ccc(F)cc2)nc2c(sc3ccccc32)c1=O,inactive: 22%
4,CCCCc1nc2ccccc2n2c(-c3ccc(C)cc3)c3c(=O)n(C)c(=O)n(C)c3c12,inactive: 7.7%
5,COCCCNC(=O)c1cc2c(=O)n3cccc(C)c3nc2s1,inactive: 2.45%
6,Cc1c(C)n(Cc2ccc(Cl)cc2)c2ccc(C(=O)NCCc3ccc(S(N)(=O)=O)cc3)cc12,inactive: -7.69%
7,Cc1cc(N2CCCCC2)nc2ccc(NC(=O)c3cccc(F)c3)cc12,inactive: -20.5%
8,CSc1cccc(NC(=O)CN(c2ccccc2)S(=O)(=O)N(C)C)c1,inactive: 5.01%
9,CC1CCN(S(=O)(=O)c2ccc3c(c2)N(CC(=O)NC(C)c2ccccc2)C(=O)CO3)CC1 (stereo not drawn),inactive: -1.75%
10,CCCCN(C)S(=O)(=O)c1cc(-c2nnc3c4ccccc4c(C)nn23)ccc1C,inactive: -9.34%
11,CN(C)c1ccc(NC(=O)CCSc2nc(-c3ccco3)cc(C(F)(F)F)n2)cc1,inactive: -21.7%
12,CCOc1ccc(-n2c(=O)c3c(C)c(C)sc3n(CC(=O)c3ccccc3)c2=O)cc1,inactive: -6.58%
13,CCN(CC)CCCNC(=O)c1c(C)oc2ncn(CC(C)C)c(=O)c12,inactive: 2.2%
14,COc1cc(Br)c(C2CC(=O)Nc3cc(OC)c(OC)c(OC)c32)cc1OC (stereo not drawn),inactive: 13%
15,CCc1ccccc1NC(=O)Cn1ncc2c(C)n(Cc3ccccc3F)c(C)c2c1=O,inactive: 0.106%
16,CC(C)CNC(=O)CCSc1nc(-c2ccc3c(c2)OCO3)cc(C(F)(F)F)n1,inactive: 3.24%
17,Cc1oc(-c2cccc(Br)c2)nc1CN1CCC(C(=O)NCCc2ccc(Cl)cc2)CC1,inactive: 6.88%
18,CCOC(=O)c1ccc(N2C(=O)c3n[nH]c(-c4cccs4)c3C2c2cccc(F)c2)cc1 (stereo not drawn),inactive: -17.2%
19,CCOc1ccccc1NC(=O)C(CC(C)C)NS(=O)(=O)c1ccc2c(c1)CCN2C(C)=O (stereo not drawn),inactive: -2.88%
20,O=C(Cn1c(=O)n(Cc2nc(-c3ccccc3)no2)c(=O)c2cc3c(cc21)OCO3)Nc1ccc(Cl)cc1,inactive: 10.6%
21,Cc1ccc(C)c(N2CCN(c3ccc(NC(=O)c4cccs4)cc3C(=O)O)CC2)c1,inactive: 22.2%
22,CCC(=O)N1N=C(c2ccc(OC)cc2)CC1c1cn(-c2ccccc2)nc1-c1cccs1 (stereo not drawn),inactive: 16.1%
23,O=C(c1cc(-c2ccc(Br)cc2)n[nH]1)N1CCN(S(=O)(=O)c2ccc(Br)cc2)CC1,inactive: -6.13%
24,COC(=O)CSc1nc2c(cnn2-c2ccc(F)cc2)c(=O)[nH]1,inactive: -2.55%
